Data from US20120148607A1.
Positions count from the first letter of the chain named. These are yes or no findings as the source states them, for the method shown. Some results given as binding are weak or reduced against the parent protein; the word gives no strength.

Sequences of proteins named here, by UniProt entry; tags and fusion partners are left off. A change or cut given only in a name is not applied to a line headed by its entry. Residues count along the entry.
UniProt P08581: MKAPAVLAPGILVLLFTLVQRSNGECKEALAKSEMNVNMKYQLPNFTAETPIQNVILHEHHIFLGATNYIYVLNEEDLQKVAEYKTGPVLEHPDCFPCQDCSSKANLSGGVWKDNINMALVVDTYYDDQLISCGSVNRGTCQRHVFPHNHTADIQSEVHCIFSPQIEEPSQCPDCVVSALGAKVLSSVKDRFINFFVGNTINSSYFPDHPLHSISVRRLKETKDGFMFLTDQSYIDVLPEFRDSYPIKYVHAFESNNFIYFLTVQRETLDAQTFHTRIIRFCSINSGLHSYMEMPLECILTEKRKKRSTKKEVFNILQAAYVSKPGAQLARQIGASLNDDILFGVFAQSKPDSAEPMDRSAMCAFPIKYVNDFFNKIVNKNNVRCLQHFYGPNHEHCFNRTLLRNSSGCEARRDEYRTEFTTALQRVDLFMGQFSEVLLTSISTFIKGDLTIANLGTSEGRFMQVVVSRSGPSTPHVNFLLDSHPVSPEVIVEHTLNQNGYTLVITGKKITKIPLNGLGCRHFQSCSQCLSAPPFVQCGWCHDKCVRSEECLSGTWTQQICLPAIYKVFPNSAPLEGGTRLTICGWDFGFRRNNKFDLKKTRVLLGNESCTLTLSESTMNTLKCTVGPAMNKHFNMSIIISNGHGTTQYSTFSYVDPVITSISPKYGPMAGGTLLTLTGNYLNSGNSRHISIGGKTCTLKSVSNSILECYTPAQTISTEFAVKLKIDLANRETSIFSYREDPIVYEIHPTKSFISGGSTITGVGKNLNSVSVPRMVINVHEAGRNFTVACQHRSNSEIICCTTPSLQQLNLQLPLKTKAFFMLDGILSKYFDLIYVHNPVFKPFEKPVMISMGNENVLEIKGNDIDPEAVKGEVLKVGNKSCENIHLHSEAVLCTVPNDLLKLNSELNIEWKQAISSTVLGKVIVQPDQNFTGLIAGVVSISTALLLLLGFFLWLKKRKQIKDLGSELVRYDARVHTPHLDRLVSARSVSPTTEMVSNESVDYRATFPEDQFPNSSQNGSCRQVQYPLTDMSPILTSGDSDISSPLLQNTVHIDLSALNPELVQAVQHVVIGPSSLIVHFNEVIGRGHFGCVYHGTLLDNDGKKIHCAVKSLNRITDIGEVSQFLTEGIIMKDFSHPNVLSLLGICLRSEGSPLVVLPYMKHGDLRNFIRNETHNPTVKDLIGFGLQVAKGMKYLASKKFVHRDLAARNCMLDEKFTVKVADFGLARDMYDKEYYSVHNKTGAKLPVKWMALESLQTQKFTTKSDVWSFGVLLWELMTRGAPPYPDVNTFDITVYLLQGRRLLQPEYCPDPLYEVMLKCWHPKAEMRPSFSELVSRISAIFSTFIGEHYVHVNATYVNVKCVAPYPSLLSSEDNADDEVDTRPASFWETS
HMet (human c-Met of Table 16): residues 25-932 of P08581
c-Met SEMA-PSI-IPT1-2 ectodomain: residues 25-741 of P08581
c-Met SEMA-PSI ectodomain: residues 25-562 of P08581
c-Met SEMA ectodomain: residues 27-515 of P08581
UniProt P16056, residues 25-929: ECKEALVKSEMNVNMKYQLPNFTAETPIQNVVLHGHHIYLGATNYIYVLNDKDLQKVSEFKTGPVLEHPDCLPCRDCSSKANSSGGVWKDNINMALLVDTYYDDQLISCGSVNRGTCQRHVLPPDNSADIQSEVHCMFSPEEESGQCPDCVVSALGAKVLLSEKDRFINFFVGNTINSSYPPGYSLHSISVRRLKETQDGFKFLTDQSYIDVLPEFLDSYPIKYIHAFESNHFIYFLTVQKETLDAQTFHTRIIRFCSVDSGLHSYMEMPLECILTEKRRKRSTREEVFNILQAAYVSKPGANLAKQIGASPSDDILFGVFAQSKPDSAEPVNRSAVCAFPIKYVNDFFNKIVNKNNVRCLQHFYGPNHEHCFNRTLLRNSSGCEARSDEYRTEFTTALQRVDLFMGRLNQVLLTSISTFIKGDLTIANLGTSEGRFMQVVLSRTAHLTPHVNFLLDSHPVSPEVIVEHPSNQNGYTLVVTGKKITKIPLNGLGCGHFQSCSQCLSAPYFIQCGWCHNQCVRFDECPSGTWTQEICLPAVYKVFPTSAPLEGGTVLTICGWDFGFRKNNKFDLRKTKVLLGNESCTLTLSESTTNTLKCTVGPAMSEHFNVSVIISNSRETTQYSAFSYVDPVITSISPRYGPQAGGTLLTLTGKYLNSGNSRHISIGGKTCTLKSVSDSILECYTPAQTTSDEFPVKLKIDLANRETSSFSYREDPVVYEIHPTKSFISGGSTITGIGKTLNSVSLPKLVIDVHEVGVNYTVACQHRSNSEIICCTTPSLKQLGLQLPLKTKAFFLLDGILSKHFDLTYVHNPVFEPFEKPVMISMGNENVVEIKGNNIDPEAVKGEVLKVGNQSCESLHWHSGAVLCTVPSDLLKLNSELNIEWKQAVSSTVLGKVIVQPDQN

B1: 36C4 mAb (antibody, V domains shown)
VH: QVQLVESGPGLVKPSQTLSLTCAVSGGSITTNYYYWSWIRQSPGKGLEWMGVIAYDGSTDYSPSLKSRTSISRDTSKNQFSLQLSSVTPEDTAVYYCARDVRVIATGWATANALDAWGQGTLVTVSS
VL: QSVLTQPPSVSGSPGKTVTISCAGTSSDVGYGNYVSWYQQLPGTAPKLLIFAVSYRASGIPDRFSGSKSGNTAFLTISGLQSEDEADYYCASYRSSNNAAVFGGGTHLTVL
B2: 40B8 mAb (antibody, V domains shown)
VH: EVQLVQPGAELRNPGASVKVSCKASGYTFTNYVIDWVRQAPGQGLEWMGRIDPENGGTRYAQKFQGRVTFTADTSTSTAYVELSNLRSEDTAVYYCARLEDYELAYDYWGQGTQVTVSS
VL: DIVMTQTPSSVTASAGEKVTINCKSSQSVLLSSNQKNYLAWYQQRLGQSPRLLIYWASTRESGVPDRFSGSGSTTDFTLTISSFQPEDAAVYYCQQGVSFPLTFGQGTKVELK
B3: 12G4 mAb (antibody, V domains shown)
VH: QLQLVESGGGMAQPGGSLKLSCAASGFTFDDYAMTWVRQAPGKGLEWLSTISWNDINTYYAESMKDRFTISRDNAKNTLYLQMNSLESEDTAVYYCAKRRDNYYGTSGEYDYWGQGTQVTVSS
VL: QSALTQPPSVSGTLGKTVTISCAGTSSDIGNYNYVSWYQQLPGTAPKLLIYEVNKRPSGIPDRFSGSKSGNTASLSISGLQSEDEADYYCASYRSSNNVVFGGGTKLTVL
B4: 20F1 mAb (antibody, V domains shown)
VH: EVQVQESGPGLVKPSQTLSLTCTVSGGSMTGNYYAWSWIRQPPGKGLEWMGVIAYDGSTYYSPSLKSRTSISRDTSKNQFSLQLSSVSPEDTAVYYCARGPGWYSGSRNDYWGQGTQVTVSS
VL: QSALTQPPSVSGSPGKTVTISCTGTNSDVGYGNYVSWYQQLPGMAPKLLIYDVNRRASGIADRFSGSKSGNTASLTISGLQSEDEGDYHCASYRSANNAVFGGGTHLFVL
B5: 38H10 mAb (antibody, V domains shown)
VH: EVQLVQPGVELRNPGASVKVSCKASGYIFTMNSIDWVRQAPGQGLEWMGRIDPEDGGTKYAQKFQGRVTFTADTSTSTAYVELNSLRSEDTAVYYCARVDDYYLGYDYWGQGTQVTVSS
VL: EIVMTQSPSSVTASAGEKVTINCKSSQSVLWRSNQKNYLAWYQQRLGQSPRLLISWASIRESGVPDRFSGSGSTTDFTLTISSFQPEDAAVYYCQQGYSFPYTFGSGTRLEIK
B6: 34H7 mAb (antibody, V domains shown)
VH: ELQLVESGGALVQPGGSLRLSCVESGFTFSSYAMSWVRQAPGKGLEWVSGIYKGGGPKYANSVKGRFTISRDNAKNTLYLQMNSLKPEDTAVYYCAKSGYGSSLGDFGSWGQGTQVTVSS
VL: QAGLTQLSSMSGSPGQTVTITCTGSSSNIGGGYYLSWYQHLPGTAPKLLIYSNINRASGVPDRFSGSTSGISASLTITGLQAEDEADYYCSSWDDSVSGPVFGGGTSLTVL
B7: 20A11 mAb (antibody, V domains shown)
VH: QVQLVESGGGLVQPGGSLRLSCAASGFTFDDYAMSWVRQAPGKGLEWVSAISWNGSSTYYAESMKGRFTISRDNAKNTLYLQMNSLKSEDTAVYYCAKDLIGSHDYWGQGTQVTVSS
VL: QAVLTQPPSVSGTLGKTLTISCAGTSSDVGYGNYVSWYQQLPGTAPKLLIYAVSTRASGIPDRFSGSKSGNTASLTISGLQSEDEADYYCASYRSSNNYAFGAGTKLTVL
B8: 13E6 mAb (antibody, V domains shown)
VH: QVQLQESGGDLVQPGGSLRLSCAASGFTFDDYVMNWVRQAPGKGLEWISAINWNGGSTYYAESMKGRFTISRDNAKNTLYLQMYSLQSDDTAVYYCVKDTVVSGNGYWGQGTQVTVSS
VL: B3 VL with A3V, N31D, E52D, P57A, S96R, N98D, V99Y, V100A

Tests used:
[1] = molecular target: c-Met SEMA-PSI ectodomain (human) (UniProt P08581); test: ELISA: c-Met ectodomain coated at 1 µg/ml on maxisorb plate; mAb in three-fold dilutions from 1 µg/ml, 1 h RT; HRP-conjugated Protein A, TMB, OD 450
[2] = molecular target: c-Met SEMA ectodomain (human) (UniProt P08581); test: as above
[3] = molecular target: c-Met SEMA-PSI-IPT1-2 ectodomain (human) (UniProt P08581); test: as above
[4] = molecular target: mouse c-Met (R&D systems cat no: 527-ME) (mouse) (UniProt P16056); test: ELISA, mAb (2 µg/ml) immobilised, mouse c-Met added, anti-His detection
[5] = molecular target: HMet (human c-Met of Table 16) (human) (UniProt P08581); test: SPR, 36C4 coupled on CM-5 chip (3000 RU), c-Met construct 10 µg/ml injected
[6] = molecular target: c-Met SEMA ectodomain (human) (UniProt P08581); test: ELISA of mAb on immobilised c-Met ectodomains
[7] = molecular target: c-Met SEMA-PSI-IPT1-2 ectodomain (human) (UniProt P08581); test: ELISA of mAb on immobilised c-Met ectodomains

Row | Binder | binding [4] | binding [6] | binding [7] | further results
1 | B1 | no binding (tested: 100 ng/ml mouse c-Met) | binds |  | binding [1]: binds; binding [2]: binds; binding [3]: binds; binding [5]: binds
2 | B2 | no binding (tested: 100 ng/ml mouse c-Met) |  | binds | binding [3]: binds
3 | B3 | no binding (tested: 100 ng/ml mouse c-Met) |  | binds | 
4 | B4 |  | binds |  | 
5 | B5 | no binding (tested: 100 ng/ml mouse c-Met) |  | binds | 
6 | B6 |  | binds |  | 
7 | B7 | no binding (tested: 100 ng/ml mouse c-Met) |  |  | 
8 | B8 | no binding (tested: 100 ng/ml mouse c-Met) |  |  | 
